According to ChEMBL document CHEMBL1201862, “PubChem BioAssay data set” (2004):
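Growth conditions: 96-well plates. Treatment: test compound, 48 hours, 5 concentrations. Analysis: linear interpolation between bracketing concentrations; unreached endpoints set to highest concentration. The concentration for 50% growth inhibition is given as GI50.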 Calls of active or inactive are those of the source. No stated cut-off is given here; in the data, active = GI50 up to about 1.1 µM and inactive = higher.

Tests used:
Assay in all cases: NCI-60 cell line screen, 48 h
[1] = system: NCI-H23
[2] = system: CCRF-CEM
[3] = system: HCC 2998
[4] = system: HT-29
[5] = system: MDA-MB-231
[6] = system: OVCAR-3
[7] = system: Hs-578T
[8] = system: A498
[9] = system: HCT-116
[10] = system: SK-MEL-28
[11] = system: NCI-H460
[12] = system: SF-268
[13] = system: SF-539
[14] = system: HOP-62
[15] = system: K562
[16] = system: RPMI-8226
[17] = system: CAKI-1
[18] = system: NCI-H226
[19] = system: NCI-H522
[20] = system: NCI/ADR-RES
[21] = system: A549
[22] = system: SN12C
[23] = system: SK-MEL-5
[24] = system: PC-3
[25] = system: HCT-15
[26] = system: OVCAR-5
[27] = system: IGROV-1
[28] = system: EKVX
[29] = system: U-251
[30] = system: COLO 205
[31] = system: HL-60
[32] = system: MDA-MB-435
[33] = system: MDA-N
[34] = system: Malme-3M
[35] = system: SR
[36] = system: RXF 393
[37] = system: SF-295
[38] = system: 786-0
[39] = system: TK-10
[40] = system: ACHN
[41] = system: SNB-19
[42] = system: LOX IMVI
[43] = system: SNB-75
[44] = system: HOP-92
[45] = system: MCF7
[46] = system: BT-549
[47] = system: DU-145
[48] = system: UACC-257
[49] = system: MOLT-4
[50] = system: OVCAR-8
[51] = system: SW-620
[52] = system: KM12

O=C1Cc2c([nH]c3ccc(F)cc23)-c2ccccc2N1
GI50 [1]: inactive: 27 µM | GI50 [2]: inactive: 18.7 µM | GI50 [3]: inactive: 26.2 µM | GI50 [4]: inactive: 20.9 µM | GI50 [5]: inactive: 26.5 µM | GI50 [6]: inactive: 22.5 µM | GI50 [7]: inactive: 18.1 µM | GI50 [8]: inactive: 41.8 µM | GI50 [9]: inactive: 8.2 µM | GI50 [10]: inactive: 32.5 µM | GI50 [11]: inactive: 21.9 µM | GI50 [12]: inactive: 29.5 µM | GI50 [13]: inactive: 21.7 µM | GI50 [14]: inactive: 15 µM | GI50 [15]: inactive: 19.1 µM | GI50 [16]: inactive: 19.1 µM | GI50 [17]: inactive: 33.7 µM | GI50 [18]: inactive: 42.2 µM | GI50 [19]: inactive: 18.2 µM | GI50 [20]: inactive: 30.8 µM | GI50 [21]: inactive: 15.3 µM | GI50 [22]: inactive: 18.3 µM | GI50 [23]: inactive: 7.62 µM | GI50 [24]: inactive: 24.6 µM | GI50 [25]: 17.5 µM | GI50 [26]: inactive: 34.4 µM | GI50 [27]: inactive: 22.2 µM | GI50 [28]: inactive: 24 µM | GI50 [29]: inactive: 23.2 µM | GI50 [30]: inactive: 24.8 µM | GI50 [31]: inactive: 17 µM | GI50 [32]: inactive: 31 µM | GI50 [33]: inactive: 34.3 µM | GI50 [34]: inactive: 50.1 µM | GI50 [35]: inactive: 10.4 µM | GI50 [36]: inactive: 3.16 µM | GI50 [37]: inactive: 48.1 µM | GI50 [38]: inactive: 28.6 µM | GI50 [39]: inactive: 46.2 µM | GI50 [40]: inactive: 16.8 µM | GI50 [41]: inactive: 34.3 µM | GI50 [42]: inactive: 18.4 µM | GI50 [43]: inactive: 23.4 µM | GI50 [44]: inactive: 30.1 µM | GI50 [45]: inactive: 18.4 µM | GI50 [46]: inactive: 43 µM | GI50 [47]: inactive: 34.8 µM | GI50 [48]: inactive: 65.5 µM | GI50 [49]: inactive: 16 µM | GI50 [50]: inactive: 36.8 µM | GI50 [51]: inactive: 32.8 µM | GI50 [52]: inactive: 18.8 µM
